Assay results taken from PubChem BioAssay (NCATS).
“And” between values parts separate entries of the source, which are not always exact repeats. Equal entries are not always repeated. This list was built around the results that the source calls inconclusive (neither active nor inactive); the mix of calls is not that of the screen. A potency beside an inconclusive call is a rough fit, not a confirmed value. The source made the active and inactive calls. Calls come from the whole dose curve; as a rule, active = well fitted curve in the direction sought with a large enough effect; inconclusive = small, poorly fitted or top-dose-only effect, or another doubt; inactive = no such curve, though single readings can be large; an effect the other way counts as inactive or inconclusive. *1 amine or outer side, *2 acyl side, *3 side chain or, on linkers, in order; H or OH if unused. Where a SMILES comes first, the peptide text is derived from it. Bridges are numbered along the chain shown (N, C = ends). Roman numbers before positions name the chains, in order. [ ]: non-standard residue; d: D form. Actinocin(9to1) = Cc1c2oc3c(C)ccc(C(=O)[*:1])c3nc-2c(C(=O)[*:2])c(N)c1=O; NMeV = CN[C@H](C(=O)O)C(C)C; Sar = CNCC(=O)O

Target: Lysine-specific demethylase 5B (Homo sapiens) (UniProt Q9UGL1)
Test: Optimization screen for KDM5B Histone Demethylases FDH coupled qHTS against the LOPAC library (AID 1347166); for activity, negative = inhibition: 0% is about no effect
Conditions: KDM5B demethylation, FDH-coupled NADH fluorescence (FDH is formaldehyde dehydrogenase); activity, negative = inhibition: at 57.5 µM (top of the series)
In short: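 KDM5BDeltaAP (200nM final) preincubated 10 min with compound, then 12.5uM H3K4Me3, 25uM a-ketoglutarate, ascorbate, Fe(II), NAD+ and FDH added; 50mM HEPES pH 7.5, 0.01% Tween-20. NADH fluorescence (340/450 nm) change over 30 min, room temperature.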
Potency is the fitted concentration of half-maximal effect; tags give direction and shape of the fitted curve.

UniProt Q9UGL1, sequence (Q9UGL1 whole entry, looked up): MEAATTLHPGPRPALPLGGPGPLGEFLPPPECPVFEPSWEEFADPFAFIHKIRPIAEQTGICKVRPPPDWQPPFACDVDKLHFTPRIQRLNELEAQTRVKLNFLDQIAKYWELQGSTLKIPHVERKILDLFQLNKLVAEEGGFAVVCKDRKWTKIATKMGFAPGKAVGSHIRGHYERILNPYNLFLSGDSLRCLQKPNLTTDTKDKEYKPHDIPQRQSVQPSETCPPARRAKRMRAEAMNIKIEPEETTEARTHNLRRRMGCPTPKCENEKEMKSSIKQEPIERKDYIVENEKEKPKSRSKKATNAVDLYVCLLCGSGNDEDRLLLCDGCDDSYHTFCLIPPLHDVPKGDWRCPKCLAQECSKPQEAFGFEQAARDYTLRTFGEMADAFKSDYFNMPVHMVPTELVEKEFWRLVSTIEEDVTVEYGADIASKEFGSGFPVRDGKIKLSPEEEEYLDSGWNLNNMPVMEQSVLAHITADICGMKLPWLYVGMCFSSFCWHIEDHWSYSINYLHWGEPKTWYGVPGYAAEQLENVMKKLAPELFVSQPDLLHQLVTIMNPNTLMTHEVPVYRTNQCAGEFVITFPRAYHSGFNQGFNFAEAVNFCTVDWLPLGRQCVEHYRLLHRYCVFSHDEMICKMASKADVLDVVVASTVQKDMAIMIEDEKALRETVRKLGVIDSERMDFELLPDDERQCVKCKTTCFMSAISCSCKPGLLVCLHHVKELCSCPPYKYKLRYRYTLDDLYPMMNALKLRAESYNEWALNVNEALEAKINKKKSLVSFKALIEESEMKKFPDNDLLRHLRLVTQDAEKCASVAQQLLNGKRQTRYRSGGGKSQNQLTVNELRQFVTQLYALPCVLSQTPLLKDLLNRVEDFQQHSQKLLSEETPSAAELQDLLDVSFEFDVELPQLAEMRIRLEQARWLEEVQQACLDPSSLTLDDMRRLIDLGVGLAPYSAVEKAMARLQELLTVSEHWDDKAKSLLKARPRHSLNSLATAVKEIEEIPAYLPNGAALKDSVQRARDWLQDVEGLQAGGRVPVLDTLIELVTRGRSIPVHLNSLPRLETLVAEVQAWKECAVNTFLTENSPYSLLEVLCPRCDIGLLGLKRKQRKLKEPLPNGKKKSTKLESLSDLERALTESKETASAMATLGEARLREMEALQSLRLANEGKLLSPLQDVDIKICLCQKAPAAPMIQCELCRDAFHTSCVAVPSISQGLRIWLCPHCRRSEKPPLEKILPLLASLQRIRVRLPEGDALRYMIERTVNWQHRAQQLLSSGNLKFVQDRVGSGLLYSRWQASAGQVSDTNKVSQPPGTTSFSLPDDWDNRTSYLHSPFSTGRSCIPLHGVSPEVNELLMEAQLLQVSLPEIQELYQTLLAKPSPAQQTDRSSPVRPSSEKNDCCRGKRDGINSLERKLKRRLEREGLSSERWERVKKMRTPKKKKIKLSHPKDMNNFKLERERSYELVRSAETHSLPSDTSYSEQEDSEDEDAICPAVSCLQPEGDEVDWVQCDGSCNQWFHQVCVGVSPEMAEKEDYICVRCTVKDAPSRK

| Compound | Potency | activity, negative = inhibition |
| --- | --- | --- |
| O=c1n(CCCN2CCN(c3cccc(Cl)c3)CC2)nc2ccccn12 | inconclusive: 25.1 µM [inhibitor, partial curve, poor fit] | – |
| CC(=O)Oc1cc(C(C)C)c(OCCN(C)C)cc1C | – | inactive: -11.1% |
| NC(=O)NO | inconclusive: 12.6 µM [inhibitor, partial curve, poor fit] | – |
| Nc1ncn([C@@H]2O[C@H](CO)[C@@H](O)[C@H]2O)c(=O)n1 | – | inactive: -3.09% |
| CC(C(O)c1ccc(O)cc1)N1CCC(Cc2ccccc2)CC1 (stereo not given) | – | inactive: -19.7% |
| Nc1ccn([C@@H]2O[C@H](CO)[C@@H](O)C2O)c(=O)n1 (stereo not given in full) | – | inactive: -5.31% |
| O=C(CCNNC(=O)c1ccncc1)NCc1ccccc1 | inconclusive: 22.4 µM [inhibitor, partial curve, poor fit] | – |
| CN(C)CCCN1c2ccccc2Sc2ccc(Cl)cc21 | – | inactive: -8.01% |
| CC/C(=C(\c1ccccc1)c1ccc(OCCN(C)C)cc1)c1ccccc1 | inconclusive: 31.6 µM [inhibitor, partial curve, poor fit] | – |
| COc1cc(NS(C)(=O)=O)ccc1Nc1c2ccccc2nc2ccccc12 | inconclusive: 28.2 µM [inhibitor, partial curve, poor fit] | – |
| CN(Cc1cnc2nc(N)nc(N)c2n1)c1ccc(C(=O)N[C@@H](CCC(=O)O)C(=O)O)cc1 | inconclusive: 28.2 µM [inhibitor, partial curve, poor fit] | – |
| CC(C)C[C@H](NC(=O)[C@@H](O)[C@H](N)Cc1ccccc1)C(=O)O | – | inactive: -7.38% |

Test system: not listed separately
Test: HepG2 cells viability qHTS for Zika virus inhibitors (AID 1347168)
Conditions: Zika counter-screen
In short: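 Compounds were tested in concentration series on cells grown in DMEM containing 4% FBS. After 24 to 48 hours, cellular ATP was measured by luminescence with CellTiter Glo.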

| Compound | Potency |
| --- | --- |
| C[C@H]1O[C@@H](O[C@H]2[C@@H](O)C[C@H](O[C@H]3[C@@H](O)C[C@H](O[C@H]4CC[C@@]5(C)[C@H](CC[C@@H]6[C@@H]5C[C@@H](O)[C@]5(C)[C@@H](C7=CC(=O)OC7)CC[C@]65O)C4)O[C@@H]3C)O[C@@H]2C)C[C@H](O)[C@@H]1O | inconclusive: 0.0758 µM [cytotoxic, full curve] |
| Cn1cnc([N+](=O)[O-])c1Sc1ncnc2nc[nH]c12 | inconclusive: 4.15 µM [cytotoxic, partial curve] |
| COc1ccc(S(=O)(=O)Nc2cc(-c3c(O)ccc4ccccc34)c(O)c3ccccc23)cc1 | inconclusive: 29.3 µM [cytotoxic, single point] |
| OCc1ccc(-c2nn(Cc3ccccc3)c3ccccc23)o1 | active: 11.7 µM |
| CC(C)(C)CC(C)(C)c1ccc(OCCOCC[N+](C)(C)Cc2ccccc2)cc1 | inconclusive: 37 µM [cytotoxic, single point] and inconclusive: 18.6 µM [cytotoxic, single point] |
| Cc1ccc(C(=O)Nc2cccc(C(F)(F)F)c2)cc1-c1ccc2nc(NCCN3CCOCC3)ncc2c1 | active: 8.27 µM |
| Cc1c2oc3c(C)ccc(C(=O)N[C@@H]4C(=O)N[C@H](C(C)C)C(=O)N5CCC[C@H]5C(=O)N(C)CC(=O)N(C)[C@@H](C(C)C)C(=O)O[C@@H]4C)c3nc-2c(C(=O)N[C@@H]2C(=O)N[C@H](C(C)C)C(=O)N3CCC[C@H]3C(=O)N(C)CC(=O)N(C)[C@@H](C(C)C)C(=O)O[C@@H]2C)c(N)c1=O (I: T[dV]P[Sar][NMeV] / II: T[dV]P[Sar][NMeV]; ester I:1-I:C, II:1-II:C; linker I:N-II:N via Actinocin(9to1)) | inconclusive: 0.117 µM [cytotoxic, full curve, poor fit] |
| CCN(CC)CCCCNc1ncc2cc(-c3cc(OC)cc(OC)c3)c(NC(=O)NC(C)(C)C)nc2n1 | inconclusive: 37 µM [cytotoxic, single point] |
| CCN1CCN(Cc2ccc(-c3cc4c(N[C@H](C)c5ccccc5)ncnc4[nH]3)cc2)CC1 | active: 38 µM |

Test system: not listed separately
Test: Tertiary RLuc qRT-PCR qHTS assay for Zika virus inhibitors (AID 1347169); note: nearly all actives have a fitted effect of over 55% in size; for activity change, negative = inhibition: top concentration of the series differs between compounds; % is set by controls: 0 for no effect and ±100 for the full control effect
Conditions: infected Vero cells, reporter luminescence, 48-72 h; series mostly up to 45.9 µM; activity change, negative = inhibition: at the top concentration
In short: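 Vero, 1,000 cells/well, o/n 37 C; cpd pinned in DMSO; ZIKV-RLuc Cambodian, MOI 1-2, 48-72 h 37 C; live-cell RLuc substrate, lum read at 1-1.5 h.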

| Compound | Potency | activity change, negative = inhibition |
| --- | --- | --- |
| C[C@H]1O[C@@H](O[C@H]2[C@@H](O)C[C@H](O[C@H]3[C@@H](O)C[C@H](O[C@H]4CC[C@@]5(C)[C@H](CC[C@@H]6[C@@H]5C[C@@H](O)[C@]5(C)[C@@H](C7=CC(=O)OC7)CC[C@]65O)C4)O[C@@H]3C)O[C@@H]2C)C[C@H](O)[C@@H]1O | active: 0.38 µM | – |
| Cc1cc(-c2ccc(N=Nc3c(S(=O)(=O)O)cc4cc(S(=O)(=O)O)cc(N)c4c3O)c(C)c2)ccc1N=Nc1c(S(=O)(=O)O)cc2cc(S(=O)(=O)O)cc(N)c2c1O | – | inactive: 2.07% |
| Cn1cnc([N+](=O)[O-])c1Sc1ncnc2nc[nH]c12 | active: 26.9 µM and inconclusive: 18.6 µM [inhibitor, partial curve, poor fit] | – |
| Oc1c(Cl)cc(Cl)c(Cl)c1Cc1c(O)c(Cl)cc(Cl)c1Cl | inconclusive: 0.117 µM [inhibitor, partial curve, poor fit] | – |
| COc1ccc(S(=O)(=O)Nc2cc(-c3c(O)ccc4ccccc34)c(O)c3ccccc23)cc1 | inconclusive: 7.37 µM [inhibitor, full curve] | – |
| OCc1ccc(-c2nn(Cc3ccccc3)c3ccccc23)o1 | inconclusive: 20.8 µM [inhibitor, partial curve] | – |
| CC(C)C[C@H]1C(=O)N2CCC[C@H]2[C@]2(O)O[C@](NC(=O)[C@@H]3C=C4c5cccc6[nH]c(Br)c(c56)C[C@H]4N(C)C3)(C(C)C)C(=O)N12 | inconclusive: 37 µM [inhibitor, single point] | – |
| Nc1nc(N)c2nc(CNc3ccc(C(=O)NC(CCC(=O)O)C(=O)O)cc3)cnc2n1 (stereo not given) | – | inactive: 8.61% |
| CC(C)(C)CC(C)(C)c1ccc(OCCOCC[N+](C)(C)Cc2ccccc2)cc1 | active: 33 µM and active: 13.1 µM and active: 10.4 µM | – |
| COc1c(C)c2c(c(O)c1C/C=C(\C)CCC(=O)O)C(=O)OC2 | active: 0.739 µM | – |
| Cc1ccc(C(=O)Nc2cccc(C(F)(F)F)c2)cc1-c1ccc2nc(NCCN3CCOCC3)ncc2c1 | inconclusive: 0.928 µM [inhibitor, full curve] | – |
| COc1ccc(-c2ccc3c(N4CCOCC4)nc(N4C[C@@H](C)O[C@@H](C)C4)nc3n2)cc1CO | inconclusive: 0.0928 µM [inhibitor, full curve, poor fit] | – |
| O=c1n(CCCN2CCN(c3cccc(Cl)c3)CC2)nc2ccccn12 | inconclusive: 36.9 µM [inhibitor, single point] | – |
| CCOC(=O)C1=C(C)NC2=C(C(=O)CC(C)(C)C2)C1c1ccc(-c2ccccc2)cc1 (stereo not given) | inconclusive: 11.7 µM [inhibitor, full curve] | – |
| Cc1c2oc3c(C)ccc(C(=O)N[C@@H]4C(=O)N[C@H](C(C)C)C(=O)N5CCC[C@H]5C(=O)N(C)CC(=O)N(C)[C@@H](C(C)C)C(=O)O[C@@H]4C)c3nc-2c(C(=O)N[C@@H]2C(=O)N[C@H](C(C)C)C(=O)N3CCC[C@H]3C(=O)N(C)CC(=O)N(C)[C@@H](C(C)C)C(=O)O[C@@H]2C)c(N)c1=O (I: T[dV]P[Sar][NMeV] / II: T[dV]P[Sar][NMeV]; ester I:1-I:C, II:1-II:C; linker I:N-II:N via Actinocin(9to1)) | inconclusive: 23.4 µM [inhibitor, partial curve, poor fit] and active: 165 nM | – |
| CCN(CC)CCCCNc1ncc2cc(-c3cc(OC)cc(OC)c3)c(NC(=O)NC(C)(C)C)nc2n1 | inconclusive: 18.6 µM [inhibitor, partial curve] | – |
| O=C(O)Cn1nnc(-c2cc(N3CCC(Oc4cc(F)ccc4Br)CC3)no2)n1 | active: 1.17 µM | – |
| CC(C)C[C@H](NC(=O)[C@H](Cc1ccccc1)NC(=O)c1cnccn1)B(O)O | active: 0.037 µM | – |
| CCN1CCN(Cc2ccc(-c3cc4c(N[C@H](C)c5ccccc5)ncnc4[nH]3)cc2)CC1 | inconclusive: 1.51 µM [inhibitor, full curve] | – |
